Reference: patent US11564922B2, “Methods of treating crohn's disease and ulcerative colitis” (AbbVie Inc., priority 2017, dated 2023)

System: subjects with moderately to severely active Crohn's Disease
Assay: Study M14-430 Sub-study 1: Phase 3, 52-week randomized double-blind maintenance study of upadacitinib vs placebo (Cohort 1, ITT1)
Conditions: for Resolution of EIMs, (%) Estimate: Week 52, subjects with EIMs at Baseline; for Resolution of EIMs, (%) Estimate / Discontinued Study Drug: Adverse event / Discontinued Study Drug: Lack of efficacy / Occurrence of CD-related hospitalization, (n/100 PYs) Estimate: ITT1; for Change from BL in FACIT-F, (LS Mean) Estimate / Change from BL in IBDQ, (LS Mean) Estimate / CR-100, (%) Estimate / Clinical remission per CDAI and endoscopic remission, (%) Estimate / Clinical remission per CDAI, (%) Estimate / Clinical remission per PROs and endoscopic remission, (%) Estimate / Clinical remission per PROs, (%) Estimate / Endoscopic remission, (%) Estimate / Endoscopic response, (%) Estimate / Steroid-free clinical remission per CDAI, among all subjects, (%) Estimate / Steroid-free clinical remission per PROs, among all subjects, (%) Estimate: Week 52, ITT1 Population; for Change from BL in FACIT-F, (LS Mean) Estimate / Change from BL in IBDQ, (LS Mean) Estimate: MMRM; for Maintenance of clinical remission per CDAI, (%) Estimate / Maintenance of clinical remission per PROs, (%) Estimate: Week 52 among subjects in clinical remission at Week 0, ITT1; for Completed Study Drug After Receiving OL Rescue, UPA 30 mg QD / Completed Study Drug Without Receiving OL Rescue, UPA 30 mg QD: Sub-study 1, ITT1; for Discontinued Study Drug: Adverse event / Discontinued Study Drug: Lack of efficacy: primary reason; for Occurrence of CD-related hospitalization, (n/100 PYs) Estimate: exposure-adjusted incidence rate during Sub-study 1, as-observed
[1] = UPA 15 mg (N = 169), after receiving OL rescue UPA 30 mg QD
[2] = UPA 15 mg (N = 169), without receiving OL rescue
[3] = UPA 30 mg (N = 168), without receiving OL rescue

CC[C@@H]1CN(C(=O)NCC(F)(F)F)C[C@@H]1c1cnc2cnc3[nH]ccc3n12 [UPA, upadacitinib]
Resolution of EIMs, (%) Estimate (UPA 15 mg (N = 61)): 24.6% | Change from BL in FACIT-F, (LS Mean) Estimate (UPA 15 mg (N = 78)): 14.3 | Change from BL in IBDQ, (LS Mean) Estimate (UPA 15 mg (N = 78)): 59.3 | Maintenance of clinical remission per CDAI, (%) Estimate (UPA 15 mg (N = 101)): 49.5% | Maintenance of clinical remission per PROs, (%) Estimate (UPA 15 mg (N = 105)): 50.5% | Completed Study Drug After Receiving OL Rescue, UPA 30 mg QD (UPA 15 mg (N = 169)): (21.9) % | Completed Study Drug Without Receiving OL Rescue, UPA 30 mg QD (UPA 15 mg (N = 169)): (52.1) % | CR-100, (%) Estimate (UPA 15 mg (N = 169)): 41.4% | Clinical remission per CDAI and endoscopic remission, (%) Estimate (UPA 15 mg (N = 169)): 14.8% | Clinical remission per CDAI, (%) Estimate (UPA 15 mg (N = 169)): 37.3% | Clinical remission per PROs and endoscopic remission, (%) Estimate (UPA 15 mg (N = 169)): 13.7% | Clinical remission per PROs, (%) Estimate (UPA 15 mg (N = 169)): 35.5% | Endoscopic remission, (%) Estimate (UPA 15 mg (N = 169)): 19.1% | Endoscopic response, (%) Estimate (UPA 15 mg (N = 169)): 27.6% | Steroid-free clinical remission per CDAI, among all subjects, (%) Estimate (UPA 15 mg (N = 169)): 36.7% | Steroid-free clinical remission per PROs, among all subjects, (%) Estimate (UPA 15 mg (N = 169)): 34.9% | Discontinued Study Drug: Adverse event [1]: (3.6) % | Discontinued Study Drug: Lack of efficacy [1]: (5.3) % | Occurrence of CD-related hospitalization, (n/100 PYs) Estimate (UPA 15 mg (N = 169)): 11.2 n/100 PYs | Discontinued Study Drug: Adverse event [2]: (5.9) % | Discontinued Study Drug: Lack of efficacy [2]: (3.0) % | Resolution of EIMs, (%) Estimate (UPA 30 mg (N = 73)): 35.6% | Maintenance of clinical remission per CDAI, (%) Estimate (UPA 30 mg (N = 92)): 65.2% | Change from BL in FACIT-F, (LS Mean) Estimate (UPA 30 mg (N = 94)): 16.1 | Change from BL in IBDQ, (LS Mean) Estimate (UPA 30 mg (N = 94)): 64.5 | Maintenance of clinical remission per PROs, (%) Estimate (UPA 30 mg (N = 105)): 60.0% | Completed Study Drug After Receiving OL Rescue, UPA 30 mg QD (UPA 30 mg (N = 168)): (17.3) % | Completed Study Drug Without Receiving OL Rescue, UPA 30 mg QD (UPA 30 mg (N = 168)): (62.5) % | CR-100, (%) Estimate (UPA 30 mg (N = 168)): 51.2% | Clinical remission per CDAI and endoscopic remission, (%) Estimate (UPA 30 mg (N = 168)): 23.2% | Clinical remission per CDAI, (%) Estimate (UPA 30 mg (N = 168)): 47.6% | Clinical remission per PROs and endoscopic remission, (%) Estimate (UPA 30 mg (N = 168)): 22.6% | Clinical remission per PROs, (%) Estimate (UPA 30 mg (N = 168)): 46.4% | Endoscopic remission, (%) Estimate (UPA 30 mg (N = 168)): 28.6% | Endoscopic response, (%) Estimate (UPA 30 mg (N = 168)): 40.1% | Steroid-free clinical remission per CDAI, among all subjects, (%) Estimate (UPA 30 mg (N = 168)): 46.4% | Steroid-free clinical remission per PROs, among all subjects, (%) Estimate (UPA 30 mg (N = 168)): 44.6% | Discontinued Study Drug: Lack of efficacy (UPA 30 mg (N = 168), after receiving OL rescue UPA 30 mg QD): (5.4) % | Occurrence of CD-related hospitalization, (n/100 PYs) Estimate (UPA 30 mg (N = 168)): 7.8 n/100 PYs | Discontinued Study Drug: Adverse event [3]: (6.0) % | Discontinued Study Drug: Lack of efficacy [3]: (0.6) %
